Measurements published in PubChem BioAssay AID1259400 (National Center for Advancing Translational Sciences (NCATS), 2018).
About 2,100 (0.6%) of roughly 350,000 compounds were called active. Inconclusive results, whose numbers are uncertain, are shown with a selection of clear calls.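 Rule for the calls: active = activity change of -60% or lower, but not beyond a set lower limit; inconclusive = change between -60% and -40%, or beyond the set limit; inactive = change above -40%.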
% is set by controls: 0 for no effect and ±100 for the full control effect.

The compounds below were run against Relaxin receptor 1 (Homo sapiens) (UniProt Q9HBX9) (assay: qHTS Assay for Antagonists of the Relaxin Receptor RXFP1). Conditions: HEK293-RXFP1, relaxin-stimulated cAMP HTRF, 30 min; at 57.5 µM; hits give low values.
Chain of UniProt Q9HBX9 (Q9HBX9 whole entry, looked up): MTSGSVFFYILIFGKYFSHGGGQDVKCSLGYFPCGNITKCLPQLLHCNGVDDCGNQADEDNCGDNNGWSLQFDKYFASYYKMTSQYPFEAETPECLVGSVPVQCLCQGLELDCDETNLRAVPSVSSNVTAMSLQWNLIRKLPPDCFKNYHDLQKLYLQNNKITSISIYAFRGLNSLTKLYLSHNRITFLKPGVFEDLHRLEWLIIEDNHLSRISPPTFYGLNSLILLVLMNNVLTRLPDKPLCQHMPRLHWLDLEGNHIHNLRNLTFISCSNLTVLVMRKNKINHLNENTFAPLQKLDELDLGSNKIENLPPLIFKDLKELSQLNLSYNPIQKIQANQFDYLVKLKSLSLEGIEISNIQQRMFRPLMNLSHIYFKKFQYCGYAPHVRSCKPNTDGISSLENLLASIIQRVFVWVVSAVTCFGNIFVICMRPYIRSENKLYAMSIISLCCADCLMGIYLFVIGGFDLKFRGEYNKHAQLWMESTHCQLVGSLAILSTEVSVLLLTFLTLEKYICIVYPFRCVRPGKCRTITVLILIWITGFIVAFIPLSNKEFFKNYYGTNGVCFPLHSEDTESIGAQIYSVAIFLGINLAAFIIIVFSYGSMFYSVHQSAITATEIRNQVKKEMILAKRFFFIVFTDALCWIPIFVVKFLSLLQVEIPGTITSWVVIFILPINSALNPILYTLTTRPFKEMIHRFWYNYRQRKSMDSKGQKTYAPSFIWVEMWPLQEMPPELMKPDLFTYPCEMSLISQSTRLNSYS
In the case of `CC(C)N1CCC2(CC1)N=C(c1ccc3c(c1)OCO3)CC(c1cc(Cl)ccc1O)N2` (stereo not given), the activity change, negative = inhibition is reported as active: -66.6%.
In the case of `COC(=O)c1cccc(NC(=O)c2ccc3c(c2)C(=O)N(C(C)(C)C)C3=O)c1`, the activity change, negative = inhibition is reported as inconclusive: -49.1%.
With `Cc1ccccc1CS(=O)(=O)c1ncc(Cl)c(C(=O)Nc2nnc(C(C)C)s2)n1` the activity change, negative = inhibition was inconclusive: -55.5%.
With `O=C(NNc1c2ccccc2nc2ccccc12)c1ccc(O)cc1O` the activity change, negative = inhibition was inconclusive: -44.5%.
With `O=C(c1ccc(Cn2c(=S)[nH]c3ccc(N4CCOCC4)cc3c2=O)cc1)N1CCN(c2ccc(F)cc2)CC1` the activity change, negative = inhibition was inactive: -16.4%.
`COc1nccnc1NS(=O)(=O)c1ccc(N=Cc2c(C)[nH]n(-c3ccc(C)c(C)c3)c2=O)cc1` was tested, and the activity change, negative = inhibition was inactive: 5.73%.
With `COc1ccc(C(CNC(=O)c2cccc(NS(=O)(=O)c3ccc(Br)cc3)c2)N(C)C)cc1` (stereo not given) the activity change, negative = inhibition was inactive: 2.04%.
In the case of `COc1ccc(C(CNC(=O)c2oc3ccc(OC)cc3c2C)N2CCCC2)cc1` (stereo not given), the activity change, negative = inhibition is reported as inconclusive: -58%.
With `CC1CN(C(=O)N2c3ccccc3Sc3ccccc32)CC(C)O1` (stereo not given) the activity change, negative = inhibition was inconclusive: -59.4%.
For `Cc1cccc(CNC(=O)c2cc(S(=O)(=O)N3CCOCC3)cn2C)c1`, the activity change, negative = inhibition was inconclusive: -40.7%.
`Cc1ccc(-c2nc(C(=O)NC3CCCCCC3)no2)cc1` was tested, and the activity change, negative = inhibition was active: -61.5%.
In the case of `C/C=C/c1ccc(OCC(O)CNCC(c2ccc(OC)cc2)N(C)C)c(OC)c1` (stereo not given), the activity change, negative = inhibition is reported as inactive: -15.5%.
`c1ccc(-c2cn3nc4c(nc3n2)CCCC4)cc1` was tested, and the activity change, negative = inhibition was inactive: 3.72%.
`COc1ccc(C(=O)N/C(=C\c2ccc3c(c2)OCO3)C(=O)Nc2ccc(C(=O)O)cc2)cc1` was tested, and the activity change, negative = inhibition was inconclusive: -45.5%.
For `CCCN1C2CCCC1CC(NC(=O)Nc1ccc(C(C)C)cc1)C2` (stereo not given), the activity change, negative = inhibition was inactive: -2.99%.
`Cn1nnnc1SCC(=O)N1c2ccccc2Sc2ccccc21` was tested, and the activity change, negative = inhibition was inactive: 1.67%.
`O=C(Nc1ccccc1N1CCN(C(=O)c2ccc(Cl)cc2)CC1)c1ccc(Br)cc1` was tested, and the activity change, negative = inhibition was inactive: 16.2%.
With `Cc1ccccc1OCC(=O)Nc1c(C)ccc2nsnc12` the activity change, negative = inhibition was inactive: -0.51%.
`O=C(NN=C1CCCC1)c1cc(-c2ccccc2)n[nH]1` was tested, and the activity change, negative = inhibition was inactive: 0.227%.
`Cc1cccc2c(=O)oc(-c3ccccc3Cl)nc12` was tested, and the activity change, negative = inhibition was inconclusive: -43.5%.
In the case of `COc1ccc(S(=O)(=O)Nc2ccc(F)cc2)cc1N(C)S(=O)(=O)c1ccc(Cl)cc1`, the activity change, negative = inhibition is reported as inconclusive: -48.8%.
In the case of `NS(=O)(=O)c1ccc(N=Nc2c(O)c(C(=O)O)cc3ccccc23)cc1`, the activity change, negative = inhibition is reported as inconclusive: -52.6%.
With `COc1ccc(NC(=O)C2CCN(S(=O)(=O)c3ccc4c(c3)CC(C)N4C(C)=O)CC2)c(OC)c1` (stereo not given) the activity change, negative = inhibition was inconclusive: -40.2%.
In the case of `Nc1nc(N)c(-c2cccc(C(F)(F)F)c2)c(Cc2cccc(C(F)(F)F)c2)n1`, the activity change, negative = inhibition is reported as active: -92.5%.
For `CSc1ccc(C(=O)N2CCc3ccc(NC(=O)c4ccccn4)cc3C2)cc1`, the activity change, negative = inhibition was active: -68.7%.
With `Cc1ccc2cccc(OCC(=O)Nc3cccc(S(=O)(=O)N4CCCC4)c3)c2n1` the activity change, negative = inhibition was inconclusive: -41.6%.
For `Cc1ccc2nc(-c3ccc(NC(=O)CSc4ccccc4)cc3)[nH]c2c1`, the activity change, negative = inhibition was inconclusive: -54.4%.
In the case of `CCOc1ccc(NC(=O)Cn2sc3nc(C)cc(C)c3c2=O)cc1`, the activity change, negative = inhibition is reported as active: -66.3%.
In the case of `O=C(c1ccc(CS(=O)c2ccccc2Cl)o1)N1CCN(c2cccc(C(F)(F)F)c2)CC1` (stereo not given), the activity change, negative = inhibition is reported as inconclusive: -40.8%.
`O=C(NCCCCc1ccccc1)c1nn(-c2ccccc2F)nc1CO` was tested, and the activity change, negative = inhibition was active: -66.1%.
For `O=C(NC1CCN(C(=O)C2CCCCC2)CC1)c1ccccc1`, the activity change, negative = inhibition was inconclusive: -48.9%.
In the case of `Cc1cccc(C(=O)NC(=S)NNC(=O)c2cccs2)c1`, the activity change, negative = inhibition is reported as inactive: 13.6%.
In the case of `O=C(Nc1ccccc1)OCCCc1ccccc1`, the activity change, negative = inhibition is reported as inconclusive: -45.8%.
In the case of `Oc1ccc(/C=N/Nc2cccc3cccnc23)c(O)c1`, the activity change, negative = inhibition is reported as inconclusive: -42.2%.
In the case of `CCOc1ccc(-n2c(-c3ccc(Br)cc3)cc3c2CC(C)(C)CC3=O)cc1`, the activity change, negative = inhibition is reported as inactive: -16%.
`Cc1ccc(CNC(=O)C2CCCN(c3nc4ccccc4n4cccc34)C2)cc1` (stereo not given) was tested, and the activity change, negative = inhibition was inconclusive: -42.9%.
For `O=C1/C(=C/c2cccs2)SC(=S)N1N1CCOCC1`, the activity change, negative = inhibition was active: -96%.
In the case of `CC(C)(C)NCC1(CO)SC(N)=NC1=O` (stereo not given), the activity change, negative = inhibition is reported as inactive: -6.96%.
In the case of `Cc1ccc(OCCn2c(CNc3ccccc3C)nc3ccccc32)cc1`, the activity change, negative = inhibition is reported as inconclusive: -51.3%.
In the case of `CCC(=O)NC1=C(NC(C)c2ccccc2)C(=O)c2ccccc2C1=O` (stereo not given), the activity change, negative = inhibition is reported as inactive: 6.62%.
With `CN(C(=O)COC(=O)COc1ccc2c(c1)CCC2)c1c(N)n(Cc2ccccc2)c(=O)[nH]c1=O` the activity change, negative = inhibition was inconclusive: -50.8%.
With `CCCN(CCC)Cc1c(C(=O)N/N=C/C(C)=C\c2ccco2)nnn1-c1nonc1N` the activity change, negative = inhibition was inconclusive: -53.3%.
For `COC(=O)c1ccc(NC(=O)CN(c2ccc(OC)cc2)S(C)(=O)=O)cc1`, the activity change, negative = inhibition was inactive: -13.5%.
For `C=CCOc1ccc(/C=C2\SC(=S)N(NS(=O)(=O)c3ccc(C)cc3)C2=O)cc1`, the activity change, negative = inhibition was inconclusive: -54.5%.
In the case of `CC(CSc1n[nH]c(=S)s1)c1ccccc1` (stereo not given), the activity change, negative = inhibition is reported as inconclusive: -45%.
In the case of `CCCCN(CC)CCCNC(=O)c1ccc2c(c1)N(Cc1ccc(C)cc1)C(=O)c1ccccc1S2`, the activity change, negative = inhibition is reported as active: -66%.
In the case of `O=C(O)c1cc(O)ccc1N=Nc1ccccc1`, the activity change, negative = inhibition is reported as inactive: 8.04%.
With `O=C(CCCN1C(=O)/C(=C\c2ccco2)SC1=S)Nc1ccc2ccccc2c1` the activity change, negative = inhibition was inconclusive: -44.6%.
In the case of `CCn1c(CNC(=O)c2ccco2)nnc1SCC(=O)c1ccc(F)cc1`, the activity change, negative = inhibition is reported as inconclusive: -40.2%.
`Cc1nc(N2CCN(c3ccccn3)CC2)c2c(C)c(C(=O)Nc3ccc(Br)cc3C)sc2n1` was tested, and the activity change, negative = inhibition was inactive: -18.3%.
For `C=CCn1cc(C(=O)N2CCN(c3ccccc3)CC2)c(=O)c2cc(S(=O)(=O)N3CCCC3)ccc21`, the activity change, negative = inhibition was inconclusive: -56.8%.
With `CN(C)CCC(=O)N1c2ccccc2Sc2ccc(Cl)cc21` the activity change, negative = inhibition was inconclusive: -41.2%.
`C=C(C)COc1ccc(-c2[nH]ncc2-c2ccc(OC)c(OC)c2)c(O)c1` was tested, and the activity change, negative = inhibition was active: -77.8%.
In the case of `CCN(C(=O)COC(=O)c1cccnc1Nc1ccccc1F)C1CCS(=O)(=O)C1` (stereo not given), the activity change, negative = inhibition is reported as inactive: -8.16%.
In the case of `CCCc1cc(NCc2ccccn2)n2nc(C)c(-c3ccccc3)c2n1`, the activity change, negative = inhibition is reported as inconclusive: -55%.
